Reference: publication PMC12502762

Target: PA domain 3 (Bacillus anthracis)
Test: ELISA

Chain of PA domain 3 (Bacillus anthracis) (P13423 517-624 limits assumed): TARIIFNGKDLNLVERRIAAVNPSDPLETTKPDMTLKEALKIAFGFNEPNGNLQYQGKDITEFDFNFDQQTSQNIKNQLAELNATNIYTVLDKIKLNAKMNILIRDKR

B1: 2A6-8A7 DVD-Ig bispecific antibody (bispecific antibody)
chain 1: QVQLQESGPGLVKPSQTLSLTCTVSGGSISSGGYYWSWIRQHPGKGLEWIGYIYYSGRTYYNPSLKSRVTMAVHTSKNQYSLRLSSVTAADTAVYFCATGDGGVAGTFDFWGQGNLVTVSSASTKGPEVQLLESGGGLVQPGGSLRLSCAASGFSFSSYAMSWVRQAPGTGLEWVSGISGSGDNIYYADSVKGRFTISRDNSKNTVYMQMNSLRAEDTALYYCAKFSGHYGSGSFHLPEYFQHWGQGTLVTVSS[letters of human IgG1 constant region not shown]
chain 2: EIVMTQSPASLSVSPGEGATLSCRASQSIHSNLDWYQQKPGQAPRLLIYGASTRATGVPARFSGSVSGTEFTLTISSLQSEDFAVYYCQQYNNWPLTFGGGTKVEIKRTVAAPDIQMTQSPATLSASIGDRVTITCRASQSISSWLAWYQQKPGKAPKVLIYKASRLESGVPSRFSGSGSGTEFTLTISSLQPDDFATYYCQQYNTYWTFGQGTKVEIIRTVAAPSVFIFPPSDEQLKSGTASVVCLLNNFYPREAKVQWKVDNALQSGNSQESVTEQDSKDSTYSLSSTLTLSKADYEKHKVYACEVTHQGLSSPVTKSFNRGEC
Q: For B1, which EC50 is on record?
A: 0.2 nM
